# Reference: PubChem BioAssay AID1468 (National Center for Advancing Translational Sciences (NCATS), 2008)
# The whole screen tested about 280,000 compounds, of which about 1,100 (0.39%) were called active. This list was built around the results that the source calls inconclusive (neither active nor inactive); the mix of calls is not that of the screen. Calls follow the shape of the dose curve; as a rule, active = well fitted inhibition curve with a large enough effect; inconclusive = small, poorly fitted or top-dose-only effect, or effect the other way; inactive = flat fitted curve, though single readings scatter. No potency is given beside an inconclusive call; the fits are too rough.
# Biological target: Microtubule-associated protein tau (Homo sapiens) (UniProt P10636)
# Test: qHTS for Inhibitors of Tau Fibril Formation, Fluorescence Polarization; also: nearly all actives have a fitted effect of over 55% in size
# Conditions: K18 P301L tau heparin fibrillization, Alexa594 FP, 6 h; series mostly up to 57.7 µM
# How it was run: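 Read-out: fluorescence polarization of Alexa 594-labeled tau (0.24 uM), 555 nm excitation, 632 nm emission. Mixtures held 15 uM unlabeled K18 P301L, compound and 20 uM heparin, pH 7 acetate buffer, incubated 6 hr at 37 C.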
# Potency is read from the fitted curve at half-maximal effect; tags tell the direction and shape of the fitted curve.
# Chain of UniProt P10636 (P10636 whole entry, looked up): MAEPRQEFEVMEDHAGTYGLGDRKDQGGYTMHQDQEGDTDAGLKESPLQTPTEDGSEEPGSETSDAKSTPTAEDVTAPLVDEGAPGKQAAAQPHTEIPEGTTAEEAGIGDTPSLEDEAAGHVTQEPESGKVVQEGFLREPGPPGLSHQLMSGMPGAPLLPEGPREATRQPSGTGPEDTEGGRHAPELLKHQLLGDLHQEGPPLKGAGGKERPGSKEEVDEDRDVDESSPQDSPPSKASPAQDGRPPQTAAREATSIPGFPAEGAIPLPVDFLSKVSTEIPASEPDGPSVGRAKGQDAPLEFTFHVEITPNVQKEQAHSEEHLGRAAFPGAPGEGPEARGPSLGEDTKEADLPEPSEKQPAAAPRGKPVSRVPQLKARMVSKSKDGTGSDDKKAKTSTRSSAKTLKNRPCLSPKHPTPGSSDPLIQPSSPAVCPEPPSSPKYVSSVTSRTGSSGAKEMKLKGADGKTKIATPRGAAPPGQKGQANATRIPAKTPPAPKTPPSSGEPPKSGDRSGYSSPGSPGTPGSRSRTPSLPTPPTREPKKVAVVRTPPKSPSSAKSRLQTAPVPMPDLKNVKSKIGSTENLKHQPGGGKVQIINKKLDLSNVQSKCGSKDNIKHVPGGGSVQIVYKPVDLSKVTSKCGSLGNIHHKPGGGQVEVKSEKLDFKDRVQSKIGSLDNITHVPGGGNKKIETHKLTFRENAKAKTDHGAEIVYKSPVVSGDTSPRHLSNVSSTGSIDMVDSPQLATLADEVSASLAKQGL
row,SMILES,Potency
1,COc1cc2c(cc1NC(=O)c1cc(-c3ccncc3)nc3ccc(C)cc13)oc1ccccc12,"inconclusive [activator, single point]"
2,COc1cccc(Nc2nc(-c3ccc(O)cc3)cs2)c1,inactive
3,O=C1NC(c2ccncc2)Nc2sc3c(c21)CCCC3 (stereo not given),"inconclusive [inhibitor, single point]"
4,COc1cc2c(Nc3ccc(NC(=O)c4ccccc4)cc3)ncnc2cc1OCCCN1CCOCC1,"inconclusive [inhibitor, full curve, poor fit]"
5,COc1cc(/C=N/NC(=O)C2COc3ccccc3O2)ccc1O (stereo not given),inactive
6,Cn1c2ccccc2c(=O)c2c(=O)n(-c3ccccc3)c(-c3ccc(C(C)(C)C)cc3)nc21,"inconclusive [inhibitor, partial curve]"
7,Cc1ccc(C(=O)Nc2ccc3c(c2)N(C)C(=O)c2ccccc2S3)cc1F,"inconclusive [inhibitor, partial curve]"
8,C(=N\c1c(-c2ccccc2)nc2n1CCS2)/c1ccccc1,"inconclusive [inhibitor, partial curve]"
9,CC(c1ccccc1C(O)c1ccccc1)N(C)C (stereo not given),"inconclusive [inhibitor, single point]"
10,Cc1ccc(C(c2sc3nc(-c4ccco4)nn3c2O)N2CCCCC2)cc1 (stereo not given),inactive
11,CN1CCC(=C2c3ccccc3C=Cc3ccccc32)CC1,"inconclusive [inhibitor, full curve, poor fit]"
12,CCn1c(NCc2ccccn2)nc2ccccc21,inactive
13,Cc1c(Cl)cccc1NC(=S)NCCc1ccc(C(F)(F)F)cc1,"inconclusive [inhibitor, partial curve]"
14,CCOC(=O)c1c(-c2ccc(C)cc2)csc1NC(=O)c1cc(=O)c2cc(C)c(C)cc2o1,inactive
15,COc1ccc2ccccc2c1C(=O)/C=C\c1ccoc1,inactive
16,O=C(Nc1ccc(S(=O)(=O)NCc2ccco2)cc1)c1ccc2ccccc2n1,"inconclusive [inhibitor, partial curve]"
17,COc1ccc(Br)cc1/C=C\C(=O)NCc1cccnc1,inactive
18,O=C(Nc1ccc(Br)cc1)c1ccc(Br)c(S(=O)(=O)NCc2ccccc2)c1,active: 12.6 µM
19,CC(=O)c1c(N2CCCCC2)nc(=S)n(-c2ccccc2)c1C,"inconclusive [inhibitor, single point]"
20,CC(C)c1ccc(N2C(=O)/C(=C/N(C)C)SC2=S)cc1,"inconclusive [activator, single point]"
21,COc1ccc2c(c1)c1c(c(=O)n(-c3cccc(Cl)c3)c(=O)n1C)n2C,inactive
22,CCOC(=O)CSc1nc2c([nH]c3ccccc32)c(=O)n1-c1ccc(OCC)cc1,"inconclusive [inhibitor, single point]"
23,O=C(Cn1nnc(-c2ccccc2NC(=O)c2ccco2)n1)Nc1ccccc1,"inconclusive [inhibitor, partial curve]"

row,SMILES,Potency
1,Brc1ccc(C2Nc3cccc4cccc(c34)N2)s1,"inconclusive [inhibitor, single point]"
2,O=C(Nc1cc(-c2nc3ccccc3o2)ccc1Cl)c1cccc2c(Cl)cccc12,"inconclusive [inhibitor, single point]"
3,Cc1ccc(NC(=O)Cn2c(=O)n(Cc3ccc4c(c3)OCO4)c(=O)c3ccc(C(=O)NC4CCCCC4)cc32)cc1,"inconclusive [inhibitor, partial curve]"
4,CCOC(=O)c1ccc(NC(=O)Cc2coc3cc(C)cc(C)c23)cc1,"inconclusive [inhibitor, partial curve]"
5,CCCC(=O)NCc1nc2cccnc2n1Cc1ccc(F)cc1,"inconclusive [inhibitor, single point]"
6,Cc1cc([N+](=O)[O-])ccc1NC(=O)CSc1nccn1C,inactive
7,CCOC(=O)c1c(-c2ccccc2)oc2ccc(NS(=O)(=O)c3ccccc3)cc12,"inconclusive [inhibitor, full curve]"
8,Cc1ccc(O)c(Sc2cc(C)ccc2O)c1,inactive
9,CCN(CC)S(=O)(=O)c1ccc2c(c1)nc(SCC(=O)N1CCCCCC1)n2-c1ccc(OC)cc1,"inconclusive [activator, single point]"
10,COn1c(SCc2cccc(Cl)c2)nc2ccccc2c1=O,"inconclusive [inhibitor, single point]"
11,Cc1nc(-c2cc(-c3nc(-c4cc(C(F)(F)F)cc(C(F)(F)F)c4)no3)no2)cs1,"inconclusive [inhibitor, single point]"
12,O=C(CSc1ccc([N+](=O)[O-])cc1)Nc1cccc(S(=O)(=O)Nc2ccccc2F)c1,"inconclusive [inhibitor, partial curve]"
13,Cc1cccc(CS(=O)(=O)CC2Nc3ccc(C(=O)NCc4ccccc4)cc3NC2=O)c1 (stereo not given),"inconclusive [inhibitor, partial curve]"
14,O=C(CCc1nnc(CCCCc2ccccc2)o1)NCCn1cccn1,inactive
15,O=c1[nH]c(-c2ccccc2)cs1,inactive
16,O=C(Nc1ccc2c(c1)OCO2)Nc1ccc2c(c1)OCO2,inactive
17,O=C(NCc1cccnc1)c1ccc(CS(=O)(=O)c2ccc(Cl)cc2)o1,"inconclusive [inhibitor, single point]"
18,Cc1nc2scc(-c3cccs3)c2c(=O)[nH]1,inactive
19,COC(=O)c1ccccc1NC(=O)CN1CCC(n2nnc3cc(C(F)(F)F)ccc32)CC1,inactive
20,O=[N+]([O-])c1cc(S(=O)(=O)Nc2cccc(Cl)c2)ccc1N=Nc1c(O)[nH]c2ccccc12,"inconclusive [activator, partial curve, poor fit]"
21,N#Cc1c(-c2ccccc2)no[n+]1[O-],"inconclusive [inhibitor, partial curve]"
22,COc1cccc(NC(=O)Nc2nnc(CC(=O)Nc3ccccc3)s2)c1,active: 12.6 µM
